The labels stand for the following.
B1: LINE1-mini (parent)
chain: GGCAGAGCUCAACACAGCGUGGCAAAGUGGCUGUGGCUAGACUGCC

The source gives no read counts; variants with many changes may rest on few reads.

In the data set the parent is B1. In words: self-cleavage, relative activity (ratio to wild type); higher = more cleavage; in vitro, sequencing; the parent is a self-cleaving ribozyme.
With GGCAGAGCUCAAAACAGCGUGGAAAAGUGGACGUGGCUAGACUGCC [C13A C23A C31A U32C], the self-cleavage came to 0.05.

Consider GGCAGAGCUCAAAACAGAGUGGCAAAGUGGCUCUGGCUAGACUGCC [C13A C18A G33C], for which the self-cleavage turned out to be 0.01. The figure for GGCAGAGCUCAAAACAGCGUGGCAAAGUGGCUGUGGAUAGACUGAC [C13A C37A C45A] is 0.01. Regarding GGCAGAGCUCAAAACAGCGAGGCAAAGUGGCUGGGGCUAGACUGCC [C13A U20A U34G], the self-cleavage was 0.02. The figure for GGCAGAGCUCAAAACUGCGUGGCAAAGAGGCUGUGGCUAGACAGCC [C13A A16U U28A U43A] is 0.03; for GGCAGAGCUCAAAAUAGCAUGGCAAAGUGGCUGUGGCUAGAGUGCC [C13A C15U G19A C42G] it is 0.11; for GGCAGAGCUCAAAAGAGCGUGGCAAAGUGGCUGUGGAUAGACUGCC [C13A C15G C37A] it is 0.08. Turning to GGCAGAGCUCAAAACCGCUUGGCAAAGUGGUUGUGGCUAUACUGCC [C13A A16C G19U C31U G40U], the self-cleavage came to 0.01.

In the case of GGCAGAGCUCAAAACAGCGUGGCAAAUUGGCUGUGGCCAGACUGCC [C13A G27U U38C], the self-cleavage was 0.52. As for GGCAGAGCUCAAGCCAGCGUGGCCAAGUGGCUGUGGCUAGACUGCU [C13G A14C A24C C46U], the self-cleavage was determined as 0.04. In the case of GGCAGAGCUCAAAACAACGUGGCAAAGCGGCUGUGGCUAGACUGCC [C13A G17A U28C], the self-cleavage came out at 0.08. Take GGCAGAGCUCAAAACAGCGUGACAUAGUGGCUGUGGCUAGACUGCC [C13A G22A A25U]: the self-cleavage was 0.08. The figure for GGCAGAGCUCAAAACAGCGUGGCAAAGUGGCUGUGGCUUGACUGCU [C13A A39U C46U] is 0.07. For the variant GGCAGAGCUCAAAACAGCGUGGCAAAGUCGCUGUGGCUAGAAUGCC [C13A G29C C42A], the self-cleavage is 0.04.

With GGCAGAGCUCAAAACAGCGUGGCAAACUGACUGUGGCUAGAUUGCC [C13A G27C G30A C42U], the self-cleavage amounted to 0.08. With GGCAGAGCUCAAAACCGCGGGGCAAAGUGGCUGAGGCCAGACUGCC [C13A A16C U20G U34A U38C] the figure was 0.05.

As to GGCAGAGCUCAAAACAGAGUGGCAAAGUGGCUGUCGCUAGACUGCC [C13A C18A G35C], the self-cleavage was 0.06. GGCAGAGCUCAAAGCAACGUGGCAAACUGGCUGUGGCUAGUCUGCC [C13A A14G G17A G27C A41U]: the self-cleavage stood at 0.03. With GGCAGAGCUCAAAACAGCGCGGCAAAGUCGCUUUGGCUAAACCGCC [C13A U20C G29C G33U G40A U43C] the figure was 0.01. For the variant GGCAGAGCUCAAAACAACGUGGCAAAGUGGCUGUGGCUAGACUGAC [C13A G17A C45A], the self-cleavage turned out to be 0.03. With GGCAGAGCUCAAAACAAUGUGGCAAAGUGGCGGUGGCUAGACUGCC [C13A G17A C18U U32G] the figure was 0.06; with GGCAGAGCUCAAAACAGUGCGGCAAAGUGGCUGACGCUAGACUGCC [C13A C18U U20C U34A G35C], 0.04. For GGCAGAGCUCAAAACAGCGUGGCAAAAUGGCUGUGGCUAGACUGCG [C13A G27A C46G], the self-cleavage was determined as 0.08. Consider GGCAGAGCUCAAAACAGCAUGGCAAAGUGGCUGUGGCUAGACUCCU [C13A G19A G44C C46U], for which the self-cleavage amounted to 0.03. The figure for GGCAGAGCUCAAAACAGCGUGGCAAAGUGGCUGUUGCUAGAGUCCC [C13A G35U C42G G44C] is 0.05; for GGCAGAGCUCAAAACAGCGUGGCAAAGUGGCUGGGUCUAGACUGCC [C13A U34G G36U] it is 0.33; for GGCAGAGCUCAAAACAGCGUGGAAAAGAGGGUUUGGCUGGACUGCC [C13A C23A U28A C31G G33U A39G] it is 0.03. With GGCAGAGCUCAAAAUAGCGUGGAAAAGUGGCUGUGGCUAGACUGCC [C13A C15U C23A], the self-cleavage was found to be 0.17. The figure for GGCAGAGCUCAAAACACCGUGGCAUAGUGGCUGUGGCUAAACUGCC [C13A G17C A25U G40A] is 0.06; for GGCAGAGCUCAAAACAACGUGGCAAAGUGGAUGUGGCUAGACUGCC [C13A G17A C31A] it is 0.04; for GGCAGAGCUCAAAACAGCGUGACAAAGUGGCUGUGGCUGGACUGCC [C13A G22A A39G] it is 0.05. For the variant GGCAGAGCUCAAAACAGCGUGGCAAAGUGGCUCUGGCUAGACUCCC [C13A G33C G44C], the self-cleavage worked out at 0.02. As for GGCAGAGCUCAAAACAUCGUGGCAAAGUGGCUGUGGCUAUACUGCC [C13A G17U G40U], the self-cleavage was determined as 0.03. In the case of GGCAGAGCUCAAAACAGCUUGGCAAAGUGUCAGUGGCUAGACUGCA [C13A G19U G30U U32A C46A], the self-cleavage is 0.04. Consider GGCAGAGCUCAAAACAUCGUGGCAAAGUGGCUGUGGAUAGACUGCC [C13A G17U C37A], for which the self-cleavage is 0.05. On to GGCAGAGCUCAAAAAAGCGUGGCAAAGUGGCUGUGGCUAGACUACC [C13A C15A G44A], for which the self-cleavage turned out to be 0.04. As for GGCAGAGCUCAAAACAGCGUGGCAAAGUGCUUGUGGCUAGACUGUC [C13A G30C C31U C45U], the self-cleavage was 0.06. For the variant GGCAGAGCUCAAAACAGCGUGGCAAAGUUGCUGUGGCUAGAGUGCC [C13A G29U C42G], the self-cleavage came out at 0.29. With GGCAGAGCUCAAAACAGCGUGGCAAGGUGGCUGUAGCUAGACUGCC [C13A A26G G35A] the figure was 0.16. Consider GGCAGAGCUCAAAACAGUGUGGCAAAGUGGCUGCGGCUAGACUGGC [C13A C18U U34C C45G], for which the self-cleavage came to 0.06. Regarding GGCAGAGCUCAAAACCGCGUGGCAAAGUGGCUGUAGCUAGACUGCC [C13A A16C G35A], the self-cleavage worked out at 0.05. The figure for GGCAGAGCUCAAAACAGCGCGGCAAAGUGGAUGUGGCUAGACUGCC [C13A U20C C31A] is 0.03; for GGCAGAGCUCAAAACAGCGUGGCAAAGUGGCUGUGGCUAGGCAGCC [C13A A41G U43A] it is 0.03. In the case of GGCAGAGCUCAAAACAGCGUGGCACAGUGGCUGUGGCUAGACUACC [C13A A25C G44A], the self-cleavage came out at 0.01.

Consider GGCAGAGCUCAAAUAAGCGUGGCAAAGUGGCUGUGGCUAGACUGCC [C13A A14U C15A], for which the self-cleavage amounted to 0.11. For the variant GGCAGAGCUCAAAACAUCGUGGCAAAGUGGACUUGGCUAGACUGCC [C13A G17U C31A U32C G33U], the self-cleavage was determined as 0.04.

Consider GGCAGAGCUCAAAAAAGCGUGGCAAAGUGGAUGUGCCUAGCCUGCC [C13A C15A C31A G36C A41C], for which the self-cleavage was 0.02. GGCAGAGCUCAAAACAGCGUGCCAAAGCGGCUGUGGCUAGACUGCC [C13A G22C U28C]: the self-cleavage amounted to 0.03.

In the case of GGCAGAGCUCAAAACAAAGUGGCAAAGUGGCUGUGGCUAGACUGCC [C13A G17A C18A], the self-cleavage is 0.06. On to GGCAGAGCUCAAAACAGCGUGGCAAAGUGGCUGUGGCUCGACUGUC [C13A A39C C45U], for which the self-cleavage is 0.07. The figure for GGCAGAGCUCAAAAUAGCGUGACAAAGUGGCUGUGGCUAGACUGCC [C13A C15U G22A] is 0.07; for GGCAGAGCUCAAAAUAGCGUGGCAAAGUGGCUGUGGCUCGACUGCA [C13A C15U A39C C46A] it is 0.03. The figure for GGCAGAGCUCAAAACUGCGUGGCAAAGUGGCUGUGGAUAGACUGCC [C13A A16U C37A] is 0.03; for GGCAGAGCUCAAAACACCGUGGCAAAGUGGAUGUGGCUAGACUGCC [C13A G17C C31A] it is 0.05; for GGCAGAGCUCAAAAUAGCGUGGCAAAGUGGCUGUGGCGAGACUGCC [C13A C15U U38G] it is 0.03. With GGCAGAGCUCAAAACAGCGUGGCUAAGUUGCUGUGGAUAGACUGCC [C13A A24U G29U C37A] the figure was 0.03.

Source of the values: the RNAGym collection of RNA variant scans (doi:10.7554/elife.90254).
